# The whole screen tested about 150,000 compounds, of which about 540 (0.36%) showed an effect of 50% or more. This is one part of the list.
# System: Plasmodium falciparum
# Test: Primary screen in NF54 nanoGlo assay, in single point, at 2uM, 72h; a lower Z score goes with more inhibition
# Type: functional, Erythrocyte
# Settings: timepoint 72 hour
Structure (SMILES),% Inhibition [%],Z score
CC(C(=O)N1CC(=O)Nc2ccccc21)N1CC(C)(C)C1C1CCCO1 (stereo not drawn),10,-1.26
CN(C)C(=O)c1nc2ccc(Cl)cn2c1CN1CCN(C)[C@H](c2ccccc2)C1,-3,0.61
COc1cccc(Cn2cc(-c3ccc(C#CCO)cc3)nn2)c1,-4,0.88
N#Cc1cccc(OCCN2CCC(c3ccnnc3)CC2)c1,-12,1.35
CCc1ccc(C(=O)N(CCCOC)Cc2c(C)nn(-c3cccc(F)c3)c2N2CCN(C)CC2)cc1,2,-0.24
COC(=O)CCNC(=O)C1CCCC(C(=O)NCCC(=O)OC)C1 (stereo not drawn),9,-1.26
Cc1ccc(CN2C(=O)C3CCCCC3C2=O)cc1S(=O)(=O)Nc1cccnc1 (stereo not drawn),-3,0.56
COc1ccc(C(=O)N2C[C@@H]3CN(C(C)=O)CC[C@]3(CO)C2)c(OC)c1,-5,0.76
COCC1CCN(S(=O)(=O)N(C)Cc2ccnc(C)c2)CC1,-3,0.43
CC[C@@H](C(=O)N1CCN(c2nc(CN3CCN(c4ccccc4F)CC3)cc(=O)[nH]2)CC1)c1ccccc1,8,-0.97
COCCn1cnnc1CNc1nnc(-c2ccccc2)s1,1,-0.21
CS(=O)(=O)c1cccc(Br)c1N1CC(CO)C1,-11,1.95
Cc1nsc(NC[C@@H]2CC[C@H](C)N2C)n1,-6,0.92
C[C@@]1(C(N)=O)CCCCN1Cc1ccc2cn[nH]c2c1,-2,0.23
CN(Cc1ccco1)C(=O)Cn1ccc(=O)n(C)c1=O,-4,0.84
CC(C)(O)C#Cc1ccc(-c2c(-c3ccccc3)ncn2CC(N)=O)s1,-1,0.1
CCOC1CC(NC(=O)NCc2nc(C3CC3)no2)C12CCCC2 (stereo not drawn),-10,0.82
Cc1ccc(-c2noc(-c3ccc(N4CCCCC4)nc3)n2)cc1,0,0.01
Cn1nccc1-c1csc(N[C@H]2CCOc3ccccc32)n1,-7,0.85
O=C(CC1=CCCCC1)N1CCCCO1,-2,0.25
COc1ccccc1NC(=O)c1cc(S(=O)(=O)N2CCCC2)cs1,-2,0.29

Structure (SMILES),% Inhibition [%],Z score
Cc1cn(CCC2OCCO2)nc1-c1ccccc1,2,-0.2
COc1ccc2cc(C(=O)NCC(=O)N3CCCC3)n(C)c2c1,14,-1.86
Cc1nc2[nH]nc(N)c2c(C)c1-c1ccnc2c1ccn2C,-1,0.08
Cc1cnn(C2CCCC2)c1NC(=O)N1CCS(=O)(=O)CC1,-18,1.9
CN1C(=O)[C@H]2CN(c3ncc(C#N)c(N)n3)C[C@H]2C1=O,-16,1.76
O=C(CC(c1ccccc1)c1ccccc1)N1CCNCC1,-9,1.24
CC(C)C(O)CC(=O)NC(C)(CO)C1CCCCC1 (stereo not drawn),25,-2.82
COCCn1cc(C(=O)Nc2cc(OC)ccc2N2CCCC2=O)c2ccccc2c1=O,-13,1.56
O=C(Nc1cccnc1-c1ccccc1)N1CC[C@H](O)C1,-3,0.36
COc1ccc(C2=C[C@@H](c3ccccc3F)n3ncc(C(=O)Nc4ccc(Cl)cc4)c3N2)cc1,-9,1.39
CN(C)c1ccc(NS(=O)(=O)C2CON(C)C2c2cccc(OCc3ccccc3)c2)cc1 (stereo not drawn),-14,1.86
Cc1cnc(C)c(NCc2ccc(N(C)C(=O)c3ccncc3)cc2)n1,-4,0.4
CCn1nccc1S(=O)(=O)N1CC[C@@]2(CCCN(CC3CC3)C2=O)C1,8,-1.1
Cc1nc(CN2CCC[C@H](Cc3nc4ccccc4[nH]3)C2)co1,19,-2.55
O=C(CC1CCC1)N1C[C@H](Nc2ncccn2)[C@@H](C2CC2)C1,-17,1.76
O=C1C2CCCN2C(=O)N1C1CCCC1c1ccc(F)cc1 (stereo not drawn),-1,0.17
Cc1ccc(C(=O)NCCc2ncc(C)n2C2CCCCC2)cn1,-2,0.31
CN(C)CCN(C)c1nc(CC2CC2)nc2c1CCN(C)CC2,4,-0.53
CC(C)c1ccc(NC(=O)[C@]2(C)CCCCC(=O)N2)cc1,-14,1.6
COc1ccc(N2CCCC2=O)c(NC(=O)CCc2ccccc2)c1,-10,1.27
Cc1nc2c([nH]1)CN(CC(=O)NCc1ccccc1F)CC2,-7,0.85

Structure (SMILES),% Inhibition [%],Z score
COc1cccc(C2=NS(=O)(=O)N(C)C(C(=O)N3CCCC[C@@H]3C)=C2)c1,2,-0.26
CNc1cc([C@H]2C[C@@H](NS(=O)(=O)c3c(C)noc3C)C2)nc(N)n1,18,-2.32
CC1(C)NC(=O)N(CC(=O)NC(c2cccs2)[C@H]2C[C@@H](O)C2)C1=O (stereo partly drawn),-7,1.15
CCN1C[C@@H](COC(=O)c2cnn(-c3ccc(F)cc3F)c2)CC1=O,-1,0.28
CNC(=O)c1nc(C(C)(C)NC(=O)c2ccc(C)nc2)nc2c1OCO2,3,-0.38
CC(C)(C)OC(=O)N[C@@H](CC(=O)O)c1ccsc1,-3,0.66
COc1ccc(NC(=O)C2[C@@H]3C=C[C@]4(O3)C(C(=O)NC3CCCC(C)C3C)N(CCN3CCCCC3)C(=O)[C@H]24)cc1 (stereo partly drawn),-3,0.31
OCCOc1ccccc1-c1nccn1CCc1cccc(F)c1,2,-0.42
Cc1ccsc1C(=O)N1C[C@H]2CCN(C(C)C)C[C@@]2(CO)C1,-7,0.98
O=C(NCCNC(=O)c1nc(-c2ccc(Br)o2)no1)c1ccco1,-17,2.18
Cc1ncc(NC(=O)C2C3CCC(O3)C2C(F)(F)F)cn1 (stereo not drawn),-8,1.38
O=C1[C@@H]2C3CCCN3C3(C(=O)Nc4ccccc43)[C@@H]2C(=O)N1CCc1ccccc1 (stereo partly drawn),0,0.06
O=C(Nc1ccc2c(c1)OCO2)c1nnc(C(=O)N2CCC(C(=O)NC3CCCCC3)CC2)s1,-23,2.06
CC[C@H]1c2cccn2CCN1C(=O)c1cc(C(C)C)n2ncnc2n1,10,-1.44
N[C@@H](c1ccc(Cl)cc1)c1ccccc1C1CC1,22,-2.83
O=C(O)[C@@H]1C[C@H](O)CCN1C(=O)C(c1ccccc1)c1ccccc1,5,-0.7
Cc1nc2ccc(NC(=O)C[C@@H]3N=C(O)c4ccccc4NC3=O)cc2[nH]1,0,-0.01
CC(C)CCn1cc(C(=O)N2CCc3c(ncn3-c3ccc(F)cc3)C2)nn1,-6,1.21
COc1ccc(C(=O)Nc2cc(F)c3nc(N4CCOCC4)ccc3c2)c(OC)c1,-1,0.1
CN1CCCC[C@@H]1CCC(=O)NCCOCc1ccc(Cl)cc1,-16,1.99
Cc1nnsc1C(=O)N[C@@H](C)c1csnn1,-5,1.01

Structure (SMILES),% Inhibition [%],Z score
C=CCNC(=O)CN(c1cccc(Br)c1)S(C)(=O)=O,0,0.05
CN1CCOC(CN(CC2CC2)C(=O)C2CCCc3nn(C)cc32)C1 (stereo not drawn),-8,0.78
O=C(Nc1cccc(OCC(=O)N2CCCC2)c1)c1cc(Cl)cc(Cl)c1,-9,1.67
CCn1cc([C@H]2OCC[C@@H]2CN2CCn3c(nnc3C3CCCC3)C2)cn1,-8,1.45
O=C1C[C@H](N2CCc3ccccc3C2)C(=O)N1CCc1ccccc1,-4,0.51
CCc1noc(C)c1CNC(=O)Cn1nc(C)c2cccnc21,-11,1.24
CCc1nn(C)c(Cl)c1CN1CCC(OCc2cccnc2)CC1,-3,0.5
COc1cccc(-c2cn3c(n2)N(C(=O)C2CCCC2)CCC3)c1,1,-0.21
C=CCN(Cc1snnc1C)S(=O)(=O)c1ccc(OC)cc1,3,-0.49
O=C(c1ccc(=O)[nH]c1)N1CCN(S(=O)(=O)c2ccc(Br)cc2)CC1,5,-0.92
Cc1cc(NC(=O)N2CCCc3ccccc3CC2)n(C)n1,1,-0.13
O=S(=O)(c1ccccc1)N1CCN(S(=O)(=O)N2CCCCCC2)CC1,2,-0.37
Cc1cnc(CCN(C)S(=O)(=O)CCN2CCCC2)s1,-7,0.93
Cn1cc(NCc2cn(C)nc2C(C)(C)C)nn1,-4,0.54
CC(C)CC[C@H](C)NS(=O)(=O)c1ccc(Cl)s1,0,-0.03
CC1CC1C(=O)N1CCOC(CS(=O)(=O)NCc2ccccn2)C1 (stereo not drawn),-1,0.12
O=C(CCc1ccco1)NC[C@@]12CCC[C@@H]1OCC2,-10,0.98
CC(C)c1cc(=O)[nH]c(-n2nc(C3CC3)cc2NC(=O)c2ccccc2C(F)(F)F)n1,18,-3.33
OCCN1CCOC[C@H]1c1ccc(F)cc1,8,-0.91
CC(C)COc1ccc(-c2cc(C(=O)N3C[C@H](C4CC4)[C@@H](N)C3)[nH]n2)cc1,2,-0.3
CN1CCN(C(=O)c2cc(=O)[nH]c(C3CC3)n2)c2ccccc2C1,-5,0.85
